Assay results published in PubChem BioAssay AID1671194 (National Center for Advancing Translational Sciences (NCATS), 2021).
About 240 (0.17%) of roughly 140,000 compounds were called active. This list was built around the results that the source calls inconclusive (neither active nor inactive); the mix of calls is not that of the screen. The call rests on the fitted dose curve; in most records, active means well fitted inhibition curve with a large enough effect; inconclusive means small, poorly fitted or top-dose-only effect; inactive means no such curve, though single readings can be large or run the other way. Potencies beside an inconclusive call are fits to weak or partial responses and may not hold up.

Test: Primary qHTS assay for inhibitors of alpha-synuclein gene (SNCA) expression; further: nearly all actives have a fitted effect of over 45% in size;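 on activity change, negative = inhibition: plate controls were DMSO cells for no effect and cell-free wells for full effect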
Details: HEK-293 SNCA-luciferase knock-in, luminescence, 24 h; activity change, negative = inhibition: at 57.2 µM (top of the series) unless noted
Potency means the concentration at half of the fitted maximal effect; tags describe the fitted curve by direction and shape.

Row | SMILES | Potency | activity change, negative = inhibition
1 | Cc1cccc(C(=O)N2CCCCCC2c2nc(C)no2)c1 (configuration not stated) | inconclusive: 3.16 µM [inhibitor, partial curve, poor fit] | 
2 | Cc1ccc(-n2ncc(C(=O)NCc3ccc4c(c3)OCO4)c2C2CCN(C(=O)OC(C)(C)C)CC2)cc1C | inconclusive: 11.2 µM [inhibitor, partial curve, poor fit] | 
3 | O=C(Cc1ccccc1)NCCC1CCN(C(=O)Nc2cc(F)ccc2F)CC1 | inactive | 
4 | Cc1ccccc1Cn1c(=O)n(CC2CCC(C(=O)N3CCC(C)CC3)CC2)c(=O)c2sccc21 (configuration not stated) | inconclusive: 28.2 µM [inhibitor, partial curve, poor fit] | 
5 | C[C@H](NC(=O)C[C@@H]1c2nc(NC(=O)c3ccc(F)cc3)sc2C[C@@H]2[C@](C)(CO)[C@H](O)CC[C@]21C)c1ccccc1 | inconclusive: 31.6 µM [inhibitor, single point] | 
6 | COc1ccccc1NC(=O)N1CCCC(Cn2c(C)nc3cccnc32)C1 (configuration not stated) | inconclusive: 0.794 µM [inhibitor, full curve, poor fit] | 
7 | COCCNC(=O)Cc1csc2nc(C)c(-c3cc(C)n(-c4ccccc4F)n3)c(=O)n12 | inactive | 
8 | COc1ccccc1CC(=O)N1CCC(n2cc(-c3nc(C)no3)nn2)CC1 | inconclusive: 20 µM [inhibitor, single point] | 
9 | CC(C)Cn1c(=O)[nH]c2cccnc21 | inconclusive: 11.2 µM [inhibitor, full curve, poor fit] | 
10 | COC(=O)c1ccc(C2c3c(-c4ccc(Br)cc4)n[nH]c3C(=O)N2c2ccc(Cl)cc2)cc1 (configuration not stated) | inconclusive: 39.8 µM [inhibitor, single point] | 
11 | COc1ccc2[nH]cc(CCNc3ccnc(-c4ccccc4C(F)(F)F)n3)c2c1 | inconclusive: 39.8 µM [inhibitor, single point] | 
12 | COc1ccc(CC2CCOC3(CCN(C(=O)c4ccc(C)s4)CC3)C2)cc1 (configuration not stated) | inactive | 
13 | CCOC(=O)C1CCCN(C(=O)c2cc3c(Cl)nc4ccccc4c3s2)C1 (configuration not stated) | inconclusive: 25.1 µM [inhibitor, partial curve, poor fit] | 
14 | O=C(Nc1cccc(Cl)c1)C(Cc1ccccc1)n1cccc1 (configuration not stated) | inconclusive: 11.2 µM [inhibitor, partial curve, poor fit] | 
15 | O=S(=O)(c1cccc2cnccc12)N1CCCNCC1 |  | inconclusive: -36.2% [inhibitor]
16 | OC1CCOC2(CCN(Cc3cccc4[nH]ccc34)CC2)C1 (configuration not stated) | inconclusive: 28.2 µM [inhibitor, single point] | 
17 | COc1cc2nc(N3CCCN(C)CC3)nc(NC3CCN(Cc4ccccc4)CC3)c2cc1OC | inconclusive: 22.4 µM [inhibitor, partial curve, poor fit] | 
